Values joined by “and” are separate entries in the source; they are usually repeats but may differ in a detail not shown here. Equal entries are not always repeated. Out of some 110,000 compounds screened, about 230 (0.21%) showed an effect of 50% or more. Some of the results follow.
Biological target: DPAP1 (Plasmodium falciparum, UniProt Q8IIJ9)
Assay: primary screen, percent inhibition; read by cleavage of a fluorogenic dipeptide substrate; higher = more effect of the substance
Design: species or system P. falciparum D10 trophozoite lysates; single well
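Also: 30 min substrate incubation versus DMSO and 10 µM JCP410 controls.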

Chain of DPAP1 (Q8IIJ9 whole entry, looked up): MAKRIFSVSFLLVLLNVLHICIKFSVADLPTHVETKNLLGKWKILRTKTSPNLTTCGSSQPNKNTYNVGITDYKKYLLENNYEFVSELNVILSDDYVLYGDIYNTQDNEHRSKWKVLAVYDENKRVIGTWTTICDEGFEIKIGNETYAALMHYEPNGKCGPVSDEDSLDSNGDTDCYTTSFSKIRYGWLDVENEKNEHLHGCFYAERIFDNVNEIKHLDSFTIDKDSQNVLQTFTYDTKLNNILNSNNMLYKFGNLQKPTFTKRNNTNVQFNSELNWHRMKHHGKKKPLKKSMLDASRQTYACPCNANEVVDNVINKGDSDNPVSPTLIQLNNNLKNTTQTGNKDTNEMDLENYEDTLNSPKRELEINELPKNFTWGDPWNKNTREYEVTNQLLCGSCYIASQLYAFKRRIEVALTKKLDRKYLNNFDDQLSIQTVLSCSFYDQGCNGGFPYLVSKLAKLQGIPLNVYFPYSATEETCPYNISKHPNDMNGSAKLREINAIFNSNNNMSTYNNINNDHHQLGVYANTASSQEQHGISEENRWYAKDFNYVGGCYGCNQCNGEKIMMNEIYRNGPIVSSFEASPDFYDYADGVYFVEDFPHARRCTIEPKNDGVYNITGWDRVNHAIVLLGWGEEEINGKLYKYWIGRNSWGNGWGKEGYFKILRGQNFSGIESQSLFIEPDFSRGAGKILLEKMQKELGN

Compared with `O=c1c2c(n3cnnc3n1-c1ccccc1)-c1ccccc1CC21CCCCC1`, `O=C(Cc1ccccc1)NCC1(c2ccccc2)CCCC1` is higher in “% Inhibition @ 10 uM” value: -1.81% for the first, -0.436% for the second.

First: CN1C(=O)C(=Cc2cn(Cc3ccccc3C#N)c3ccccc23)C(=O)N(C)C1=O
Second: N#Cc1cn(CC(=O)Nc2ccccc2F)c2ccccc12
The “% Inhibition @ 10 uM” value of the first is lower: -2.87% for the first, 4.09% for the second.

Compared with `Cc1sc2nc(Cc3ccccc3)nc(N3CCCCCC3)c2c1C`, `N#Cc1c(N)nc2c(c1-c1ccccc1)CCCCCC2` is lower in “% Inhibition @ 10 uM” value: 0.238% for the first, -4.35% for the second.

First: COc1ccc(C2(O)CSC3=C(C#N)C(c4ccccc4F)CC(=O)N32)cc1 (stereo not shown)
Second: COc1ccc(C2CC(=O)Nc3cc4c(cc32)OCO4)cc1 (stereo not shown)
The “% Inhibition @ 10 uM” value of the first is higher: 3.24% for the first, 1.93% for the second.

Going from `COc1ccc(-c2cc(C)no2)cc1S(=O)(=O)N1CCc2ccccc2C1` to `COc1ccc(C)cc1N(CC(=O)N1CCCCC1)S(=O)(=O)c1ccc(C)cc1`, the “% Inhibition @ 10 uM” value rises from 1.84% to 2.25%.

First: CCCCSc1nc(O)c(Cc2ccccc2)c(O)n1
Second: Nc1nc(CSc2ccccc2)nc(NCCc2ccccc2)n1
The “% Inhibition @ 10 uM” value of the first is lower: -9.14% for the first, -2.19% for the second.

First: Cc1ccc(S(=O)(=O)N2CCN(C(=O)CSc3nc4ccccc4[nH]3)C2)cc1
Second: Cc1ccc(S(=O)(=O)N(CC(=O)N2CCOCC2)c2ccccc2Cl)cc1
The “% Inhibition @ 10 uM” value of the first is higher: -1.69% for the first, -4.31% for the second.

Compared with `CCc1ccc(NC2=C(Cl)C(=O)N(c3ccccc3)C2=O)cc1`, `CCN(/C=C1\C(=O)N(c2ccc(C)cc2)C(=O)c2ccccc21)CC` is lower in “% Inhibition @ 10 uM” value: 5.58% for the first, -1.28% for the second.

First: Cc1nc(-c2ccccc2)c2cc(Cl)sc2n1
Second: COc1cccc(OC)c1C(=O)Nc1nc(-c2ccccc2)c(C)s1
The “% Inhibition @ 10 uM” value of the first is lower: 6.24% for the first, 8.36% for the second.

Going from `CN(CCCNC(=O)c1cc2cc3ccc(Cl)cc3nc2o1)Cc1ccccc1` to `O=C(CN(Cc1ccccc1)S(=O)(=O)c1ccc(Cl)cc1)NCC1CCCO1` (stereo not shown), the “% Inhibition @ 10 uM” value falls from -3.35% to -5.26%.

Compared with `Cc1nn(CC(=O)NC(C)C)c(=O)c2cc3ccccc3n12`, `CCNC(=O)c1cc2c(=O)n3ccccc3nc2n(Cc2ccco2)c1=N` is higher in “% Inhibition @ 10 uM” value: 3.24% for the first, 5.17% for the second.

First: OCCN1CCN(Cc2ccsc2)CC1
Second: CN1CCN(Cc2c[nH]c3ccccc23)CC1
The “% Inhibition @ 10 uM” value of the first is higher: 1.9% for the first, 1.63% for the second.

Compared with `CCc1ccc(OCC(=O)NCc2cccnc2)c(Br)c1`, `CCc1ccc(OCC(=O)Nc2nccs2)c(Br)c1` is lower in “% Inhibition @ 10 uM” value: -1.06% for the first, -13.7% for the second.

First: CC(C)(C)NS(=O)(=O)c1ccc(NC(=O)NC2CCCCC2)cc1
Second: CC1=C(c2cccc(Br)c2)S(=O)(=O)N=C1NC1CCCCCC1
The “% Inhibition @ 10 uM” value of the first is lower: -1.27% for the first, 3.87% for the second.

Going from `N#CC1=C(N)OC2=C(C(=O)CC(c3ccccc3)C2)C1c1ccsc1` (stereo not shown) to `CSc1ccc(C2C(C#N)=C(N)OC3=C2C(=O)CC(C)C3)cc1` (stereo not shown), the “% Inhibition @ 10 uM” value falls from 10.8% to -4.94%.

Going from `CC(c1ccccc1)n1c(CNC(=O)c2ccccc2)nc2ccccc21` (stereo not shown) to `N=C(N)NCCCC(NC(=O)c1ccccc1)C(=O)Nc1ccc2ccccc2c1` (stereo not shown), the “% Inhibition @ 10 uM” value falls from -1.15% to -7.46%.

Going from `Cc1oc(-c2cccs2)nc1CS(=O)CC(=O)NCCC(C)C` (stereo not shown) to `CCN(CC)CCN1C(=O)C(O)=C(C(=O)c2cccs2)C1c1ccccn1` (stereo not shown), the “% Inhibition @ 10 uM” value falls from -0.138% to -0.865%.

First: Clc1ccc(CNc2c3c(nc4nncn24)CCC3)cc1
Second: Clc1ccc(-c2noc3ncnc(NCc4cccnc4)c23)cc1
The “% Inhibition @ 10 uM” value of the first is lower: -7.24% for the first, -3.95% for the second.

Compared with `COc1ccc(C(C#N)Nc2ccc(C)cc2)cc1` (stereo not shown), `COc1ccc(C(CC(=O)c2ccc(Br)cc2)Sc2ccccc2N)cc1` (stereo not shown) is lower in “% Inhibition @ 10 uM” value: 4.22% for the first, -8.12% for the second.

Compared with `CC1CN(Cc2nc3c(c(=O)n(C)c(=O)n3C)n2Cc2ccccc2)CC(C)O1` (stereo not shown), `Cc1c2c(nc3ccccc13)OC(C)C2` (stereo not shown) is higher in “% Inhibition @ 10 uM” value: -4.14% for the first, -2.24% for the second.

Compared with `CCOc1c(OC)cccc1C1C(C#N)=C(N)Oc2[nH]nc(-c3ccncc3)c21` (stereo not shown), `CCCC1=C(C(=O)OCC)C(c2cc(Br)c(OC)cc2OC)C(C#N)=C(N)O1` (stereo not shown) is lower in “% Inhibition @ 10 uM” value: -0.759% for the first, -3.13% for the second.

Compared with `Cc1c(C(=O)N2CCC(Cc3ccccc3)CC2)cccc1[N+](=O)[O-]`, `Cc1ccc(N2CCN(C(=O)c3ccccc3N)CC2)cc1` is lower in “% Inhibition @ 10 uM” value: 1.9% for the first, -5.21% for the second.

Compared with `Cc1ccc(C(=O)N/C(=C\c2ccco2)C(=O)NCc2ccccc2F)cc1C`, `Cc1ccc(C(=O)N/C(=C/c2ccc(-c3ccc(Br)cc3)o2)C(=O)NCCCN(C)C)cc1` is higher in “% Inhibition @ 10 uM” value: -2.78% for the first, 1.63% for the second.

Going from `COc1ccc(C(=O)N/C(=C\c2ccc3c(c2)OCO3)C(=O)Nc2ccc3ccccc3c2)cc1` to `COc1cccc(NC(=O)c2ccccc2Cl)c1`, the “% Inhibition @ 10 uM” value rises from -6.36% to 5.29%.

Compared with `[O-][n+]1onc2c3nsnc3c(Br)cc21`, `Cc1ccc(S(=O)(=O)N(CC(=O)NCc2ccccn2)c2ccc(Br)cc2)cc1` is higher in “% Inhibition @ 10 uM” value: -2.9% for the first, 4.11% for the second.

Compared with `NC(=O)C(=S)NCc1ccncc1`, `O=C(O)C1CCCCC1C(=O)NCc1ccccc1` (stereo not shown) is higher in “% Inhibition @ 10 uM” value: -5.96% for the first, 2.01% for the second.

Compared with `Cc1cccnc1NC(=O)Nc1ccc(Cl)cc1`, `Nc1c(C(=O)c2ccc(Cl)cc2)sc2nc(-c3cccnc3)ccc12` is higher in “% Inhibition @ 10 uM” value: -0.925% for the first, 8.05% for the second.

First: c1ccc2c(c1)CCN2c1ccncc1
Second: C/C(=C\c1ccccc1)CN1CCN(c2cccc(Cl)c2)CC1
The “% Inhibition @ 10 uM” value of the first is lower: -0.415% for the first, 1.08% for the second.

Compared with `CCNCC(O)CNC(C)(C)C` (stereo not shown), `C=C(C)c1cccc(C(C)(C)NC(=O)NCCc2ccccc2)c1` is higher in “% Inhibition @ 10 uM” value: -2.7% for the first, 1.26% for the second.

Compared with `C=CCc1cc(/C=C2\Sc3ccccc3C2=O)cc(OCC)c1O`, `CCOc1ccc(CNc2nc3ccc(C(=O)c4ccccc4)cc3n3cnnc23)cc1OC` is lower in “% Inhibition @ 10 uM” value: -4.74% for the first, -8.48% for the second.

Going from `COc1ccc(Nc2nc(N)nc(-c3cc(Cl)ccc3O)n2)cc1` to `CCOc1ccc(C(=O)Nc2cc(OC)c(Cl)cc2OC)cc1`, the “% Inhibition @ 10 uM” value falls from -1.17% to -5.82%.

Compared with `CCC(C)NC(=O)c1cc2c(Cl)ccc3c2n1CCO3` (stereo not shown), `COc1ccc(-c2nnc(SCC(=O)N3CCOCC3)o2)cc1OC` is lower in “% Inhibition @ 10 uM” value: 3.47% for the first, -5.29% for the second.

Compared with `CC1Cc2cc(C(=O)C3=C(O)C(=O)N(CCN4CCOCC4)C3c3cccs3)ccc2O1` (stereo not shown), `CCCN1CCN(C(=O)c2ccc(CS(=O)Cc3ccc(Cl)cc3)o2)CC1` (stereo not shown) is higher in “% Inhibition @ 10 uM” value: 0.291% for the first, 2.3% for the second.

First: C/C=C/Cn1c(SCC(C)C)nc2c1c(=O)[nH]c(=O)n2C
Second: COc1ccc(CCn2c(SCC(=O)c3ccc(O)c(O)c3)nc3ccsc3c2=O)cc1OC
The “% Inhibition @ 10 uM” value of the first is lower: 3.05% for the first, 5.43% for the second.

Going from `COc1cc(/C=C2/SC(N3CCC(C(N)=O)CC3)=NC2=O)ccc1O` to `O=C1N=C(Nc2ccccc2C(=O)O)S/C1=C\c1ccco1`, the “% Inhibition @ 10 uM” value rises from -1.44% to -0.473%.

First: CCN(CC)CCN(C)Cc1ccccc1Br
Second: CN(C)CCOC(=O)NS(=O)(=O)c1ccccc1Cl
The “% Inhibition @ 10 uM” value of the first is higher: 0.162% for the first, -6.52% for the second.

Compared with `CCOc1ccccc1/C=N\n1c(C)nnc1C`, `Cc1ccc(C2c3c(oc4ccccc4c3=O)C(=O)N2c2nnc(C)s2)o1` (stereo not shown) is higher in “% Inhibition @ 10 uM” value: -0.339% for the first, 0.189% for the second.

Going from `CC1(C(=O)n2cnc3ccccc32)CC1(Cl)Cl` (stereo not shown) to `c1ccc(COCn2cnc3c4sccc4ncc32)cc1`, the “% Inhibition @ 10 uM” value falls from 8.74% to 2.22%.

First: Cc1nc2ccccc2n1CCc1nc2c3ccccc3nc(NCCCOC(C)C)n2n1
Second: O=C(O)[C@H](Cc1cc2ccccc2[nH]1)N1C(=O)c2ccccc2C1=O
The “% Inhibition @ 10 uM” value of the first is higher: 7.15% for the first, -4.69% for the second.

First: Nc1nnc(N2CCN(Cc3ccccc3)CC2)s1
Second: OCC1CCCN(Cc2ccccc2F)C1 (stereo not shown)
The “% Inhibition @ 10 uM” value of the first is higher: -0.887% for the first, -3.94% for the second.

First: Cc1ccc(C)n1-c1cccc(C(=O)O)c1
Second: O=C(O)c1cccc(N2C(=O)c3ccc(Oc4ccc([N+](=O)[O-])cc4)cc3C2=O)c1
The “% Inhibition @ 10 uM” value of the first is lower: -5.51% for the first, 9.31% for the second.

Going from `O=C(NC12CC3CC(CC(C3)C1)C2)c1cccnc1` to `CN(C(=O)C12CC3CC(CC(C3)C1)C2)C1CCS(=O)(=O)C1` (stereo not shown), the “% Inhibition @ 10 uM” value rises from 0.135% to 0.51%.

Compared with `CC1=C(C(=O)Nc2ccccc2)C(c2ccc(N(C)C)cc2)n2ncnc2N1` (stereo not shown), `COCCN1Cc2cccc(C(=O)NCc3ccccn3)c2C1=O` is lower in “% Inhibition @ 10 uM” value: 5.12% for the first, -4.14% for the second.

Going from `CC(=O)OCC12COC(c3cccnc3)C(C(C)=CC1C)C2C` (stereo not shown) to `CC12CC3CC(C)(C1)CC(OCCNC(=O)c1cc4c(s1)-c1ccccc1OC4)(C3)C2`, the “% Inhibition @ 10 uM” value falls from -1.85% to -12.6%.

First: Cc1ccc2oc(=O)c(C(=O)O)cc2c1
Second: COc1ccc(-c2c/c(=N\CC(=O)NCC(=O)O)c3cc(C)ccc3o2)cc1
The “% Inhibition @ 10 uM” value of the first is higher: 4.85% for the first, -0.169% for the second.

Going from `Cc1cc(C(N)=O)c(C)s1` to `CCOC(=O)c1c(NC(=O)c2ccco2)sc2c1CCCC2`, the “% Inhibition @ 10 uM” value rises from 3.05% to 11.6%.

Going from `O=C1c2ccccc2C(=O)c2c(OS(=O)(=O)O)cccc21` to `O=c1c(-c2nc3ccccc3[nH]2)coc2cc(O)ccc12`, the “% Inhibition @ 10 uM” value rises from -4.27% to 8.45%.

First: O=C(c1ccc([N+](=O)[O-])cc1)C12CN3CN(CN(C3)C1)C2
Second: CN(C)c1ccc(CN(C(=O)c2ccco2)C2CCS(=O)(=O)C2)cc1 (stereo not shown)
The “% Inhibition @ 10 uM” value of the first is higher: -2.44% for the first, -5.41% for the second.

Going from `CCc1nccn1S(=O)(=O)c1cc(OC)c(Cl)cc1OC` to `COc1cccc(C(=O)Nc2nc(-c3nnn(-c4cc(OC)cc(OC)c4)c3C)ns2)c1`, the “% Inhibition @ 10 uM” value rises from -1.17% to 1.11%.

Compared with `O=S(=O)(c1ccc(-c2cc(C(F)(F)F)no2)s1)N(Cc1ccco1)C1CCCC1`, `Cc1c(CNC(=O)c2cc3nc(-c4ccc(Cl)s4)cc(C(F)(F)F)n3n2)cnn1C` is lower in “% Inhibition @ 10 uM” value: 3.9% for the first, -2.45% for the second.

For `Oc1ccc(Oc2nc(N3CCCCC3)nc(N3CCCCC3)n2)nn1`, the “% Inhibition @ 10 uM” value was 5.5%.

`CN(C)c1cnn(-c2ccccc2)c(=O)c1N` was tested, and the “% Inhibition @ 10 uM” value was 0.215% and -3.8%.
For `Cc1ccc(-c2cc(C(=O)Nc3ncccn3)c3ccccc3n2)cc1C`, the “% Inhibition @ 10 uM” value was 0.331% and -5.79%.

Source: PMC6919601, “Identification of Plasmodium dipeptidyl aminopeptidase allosteric inhibitors by high throughput screening” (PLoS ONE, 2019)
